Experimental findings from article PMC10668032 are described below.

The list shows a part of the results. At the low end of the ranking, values are background and their order means little.

This test has as its target SIX1-Q177R homeodomain (UniProt Q15475). Kind of test: universal protein binding microarray. The conditions noted are these: Universal all-10-mer PBM (8x60K, AMADID 030236), 300 nM GST-tagged protein, Alexa Fluor 488 anti-GST; buffer, salt, pH and temperature not stated; high values mean tight binding; most listed sequences are background and not binding sites; double strand, one strand shown.
Take ATAAAGCG: the binding signal is -0.0589 E-score. Take CATCAACC: the binding signal is -0.0973 E-score. With CTGAAGCA, the binding signal is -0.145 E-score. To CGGTCTGA belongs -0.223 E-score; to AGGAGCCG, -0.0765 E-score. To AATAGGCC belongs -0.102 E-score; to CTGAACAA, -0.0629 E-score; to GAAGATAC, 0.16 E-score. For the sequence CTGGGACA, the binding signal came out at 0.0675 E-score. The result for AGATCTGA reads -0.0204 E-score; that for ATTGTGGC, -0.124 E-score; that for CAGGCGCA, -0.128 E-score.

On to AACTAGTC, for which the binding signal is -0.0563 E-score.

Turning to ACATACCT, the binding signal was 0.0077 E-score.

In the case of GAAGCCGC, the binding signal was -0.206 E-score.

Consider CTGCAAGC, for which the binding signal was -0.0586 E-score. For CAAAACAC, the binding signal stood at 0.321 E-score. In the case of ATACGTGG, the binding signal is -0.17 E-score.

In the case of GGTCGTTA, the binding signal was -0.00188 E-score.

Turning to CTCTTCAC, the binding signal was -0.0383 E-score. The result for ATCGAATG reads -0.168 E-score; that for GTCCGGAA, -0.0289 E-score; that for ATAAAACC, -0.0191 E-score. To CAACTTCG belongs -0.135 E-score.

As for ATGACCGC, the binding signal was -0.0384 E-score.

Turning to CTATTCCA, the binding signal was -0.114 E-score. For CCGTATTA, the binding signal turned out to be 0.141 E-score. The result for CAGGAAAC reads -0.158 E-score. To GGGGTAGA belongs 0.194 E-score.

As to GGCCCGCA, the binding signal was -0.169 E-score. For the sequence CATCCCCA, the binding signal is -0.15 E-score. On to AACCACAA, for which the binding signal is -0.0988 E-score.

For GCTGGAAC, the binding signal is -0.151 E-score. To AGTGAGTG belongs 0.0511 E-score; to CTCACGAA, -0.0654 E-score; to AAAATCCC, 0.00921 E-score.

Regarding GTGACGTA, the binding signal was -0.151 E-score.

Consider CCGTCGGA, for which the binding signal turned out to be 0.0135 E-score. To GGCCCTTA belongs -0.091 E-score; to CATCGAAC, -0.0275 E-score; to AACCCCTG, 0.0584 E-score. To CCAGTCTA belongs -0.0512 E-score; to AAAGACGA, -0.212 E-score; to ACGAATAA, 0.0271 E-score. The result for GGCGTACC reads 0.19 E-score; that for CGACTGCC, -0.0414 E-score; that for CGGGCTGC, 0.00345 E-score. Take GAACGTTC: the binding signal is -0.233 E-score. In the case of ACTCTCTA, the binding signal is -0.0184 E-score. Regarding CTCTCAGC, the binding signal is -0.172 E-score.

Consider GAGCAGAC, for which the binding signal was -0.227 E-score. As to GCAATGTA, the binding signal was -0.0399 E-score.

Consider CTGAGTGA, for which the binding signal is -0.0863 E-score. To ACCGATAC belongs 0.268 E-score. For the sequence CGGATGAG, the binding signal was 0.0224 E-score.

In the case of ATGCCACC, the binding signal is 0.113 E-score. To CAGACATG belongs -0.0941 E-score; to CAGTTGAC, 0.0323 E-score.

Regarding ACCAAGGC, the binding signal was 0.0741 E-score.

CCCTTTCG: the binding signal is -0.0919 E-score. To ATGGCTTA belongs -0.133 E-score. For the sequence ACCTATTG, the binding signal turned out to be 0.00187 E-score.

Turning to GAACTAGC, the binding signal was -0.0871 E-score.

GGATAGGA: the binding signal is -0.061 E-score. To AGCCTACA belongs 0.0664 E-score. To CCCTAATC belongs -0.0285 E-score; to CAATCCAC, 0.168 E-score. Consider ACTGTGGC, for which the binding signal was -0.0502 E-score. With GTAGCACA, the binding signal was 0.00619 E-score. Consider AAAGCCAG, for which the binding signal is -0.00808 E-score.

On to GGCCTCCA, for which the binding signal is -0.122 E-score.

As for AAACCGTC, the binding signal is -0.0487 E-score. In the case of TGACATCA, the binding signal is -0.159 E-score. On to AACGTCCA, for which the binding signal was -0.157 E-score.

Consider GGGCGGAC, for which the binding signal is -0.00302 E-score. To CTTGCTTC belongs -0.147 E-score; to CGCGTTCA, 0.0202 E-score; to AACGCTCT, -0.11 E-score. For the sequence GACAGTGC, the binding signal was -0.121 E-score.

CGTTTAAA: the binding signal was -0.232 E-score. Regarding ATTTGGCG, the binding signal was -0.0528 E-score. Take GCAATTCC: the binding signal was -0.125 E-score. To AGCGTTTG belongs -0.206 E-score. The result for CCAGCTCG reads 0.012 E-score; that for CGCTCCCG, -0.0443 E-score; that for CGATATAC, 0.00812 E-score. The result for GAATATCA reads -0.0698 E-score; that for CGACTCGA, 0.0542 E-score; that for ACACAGGG, 0.158 E-score. For the sequence TCGGAGCA, the binding signal was -0.175 E-score. With CTAGGAAG, the binding signal was -0.0432 E-score. The result for ACTATACG reads 0.178 E-score; that for GTCCAGGA, -0.0739 E-score. To GCATGTGA belongs -0.276 E-score; to CCAATTCC, -0.0091 E-score. On to ACTCGCCG, for which the binding signal was determined as 0.0929 E-score. AGATGCTA: the binding signal was -0.172 E-score.

Take ACCTAACG: the binding signal is -0.0343 E-score. In the case of ATCGCTCG, the binding signal amounted to 0.0232 E-score.

As for ATGGAATC, the binding signal was -0.101 E-score.

As for AATTCAAC, the binding signal is -0.133 E-score. With CAGAGCGG, the binding signal was -0.091 E-score. The result for CTTGAGGC reads -0.147 E-score; that for AGGAGATC, -0.0983 E-score; that for AATGCTTG, -0.248 E-score. In the case of ACGAACTC, the binding signal stood at 0.111 E-score. Consider GGAGTGCC, for which the binding signal was -0.0693 E-score.

Consider CAAAAGAC, for which the binding signal is -0.142 E-score.

For AGATCGCC, the binding signal was -0.127 E-score. To GTGTCAGA belongs 0.453 E-score; to AGAAAGGG, 0.0538 E-score. For the sequence GCACCTTA, the binding signal came to 0.0994 E-score. Regarding ATTTTGAA, the binding signal was -0.17 E-score. To CCCCACAG belongs 0.172 E-score; to ATGGGCTG, -0.0771 E-score.

Consider CTCTGTCA, for which the binding signal is -0.258 E-score. As for GTCGGTCA, the binding signal was -0.218 E-score. To CGCTGACC belongs -0.121 E-score. Turning to CCGATTAA, the binding signal is -0.15 E-score.

In the case of ACACCTCT, the binding signal was determined as 0.467 E-score. Regarding AAGCCCGT, the binding signal was -0.101 E-score. The result for GCCTACCC reads 0.106 E-score; that for ATATGTCC, -0.0922 E-score; that for GCATAATA, -0.0596 E-score. Turning to GAGACCAA, the binding signal was -0.248 E-score. To GCACGGAC belongs 0.0792 E-score; to GCCTTTAA, -0.193 E-score; to AGTGACGC, 0.00605 E-score. To AGGGAATC belongs 0.068 E-score; to AAAACTAA, -0.162 E-score; to CAACGACC, -0.0259 E-score.

For AGCTTCCT, the binding signal was -0.274 E-score. The result for ACTTCCTG reads -0.102 E-score; that for AATCGTGC, -0.0483 E-score; that for ACAGCGGC, -0.296 E-score. To CCGCGAGC belongs -0.106 E-score; to GAACGGTC, -0.0495 E-score; to CGGCTTAG, -0.127 E-score.

Consider ACCGACAA, for which the binding signal is -0.167 E-score.

For CATCGATC, the binding signal was -0.173 E-score. Turning to AGTAAGCC, the binding signal was -0.13 E-score.

Regarding CCAGCCTC, the binding signal was -0.215 E-score. Turning to GCTCCTCC, the binding signal was -0.134 E-score. With GAAAGACA, the binding signal is 0.0194 E-score.

As to AGTAGTAT, the binding signal came to 0.104 E-score.

As for AACAGCGA, the binding signal was -0.121 E-score.

As for CCCCGAGC, the binding signal was determined as 0.198 E-score. Consider AGGGTCCA, for which the binding signal came to 0.0449 E-score. The result for TCCCGAAA reads -0.159 E-score; that for CGCAGTCA, -0.0602 E-score. The result for CATCTTCG reads -0.193 E-score. On to GTTTGATA, for which the binding signal is -0.0259 E-score. In the case of TCAGAGGA, the binding signal was -0.174 E-score. Regarding GTTGATCA, the binding signal is -0.0791 E-score. To GCCTGCCA belongs -0.309 E-score. The result for CCAGTTCA reads -0.209 E-score. The result for ACAATTTA reads -0.0701 E-score; that for ACACTCCC, 0.404 E-score. Turning to AGGAACGA, the binding signal is -0.0133 E-score. Turning to CGCGACAC, the binding signal came to 0.436 E-score. To AAATGAGT belongs -0.0823 E-score; to AGTATTCA, -0.125 E-score. The result for CTAGCCAA reads -0.0738 E-score.

As for CGTGAAAG, the binding signal is -0.0789 E-score. As to CTACCACC, the binding signal worked out at 0.183 E-score.

In the case of ATGGCGCC, the binding signal was -0.105 E-score. To AATCGTAT belongs -0.0269 E-score.

On to GACGAAGC, for which the binding signal is -0.0886 E-score. On to CTGATCCA, for which the binding signal amounted to 0.124 E-score.

As to CTGCCGAC, the binding signal was 0.0614 E-score. With ACCGAAGA, the binding signal is -0.0813 E-score. The result for GTAGAGGA reads 0.0423 E-score.
